Drawing on publication PMC6650080, “A novel Ca2+-binding protein that can rapidly transduce auxin responses during root growth” (PLoS Biology, 2019), this text covers binding for eight molecules.

Assay [1] has as its target T1, ICR1W266A, two-hybrid fusion (Arabidopsis) (UniProt Q8LE98).
T1 sequence: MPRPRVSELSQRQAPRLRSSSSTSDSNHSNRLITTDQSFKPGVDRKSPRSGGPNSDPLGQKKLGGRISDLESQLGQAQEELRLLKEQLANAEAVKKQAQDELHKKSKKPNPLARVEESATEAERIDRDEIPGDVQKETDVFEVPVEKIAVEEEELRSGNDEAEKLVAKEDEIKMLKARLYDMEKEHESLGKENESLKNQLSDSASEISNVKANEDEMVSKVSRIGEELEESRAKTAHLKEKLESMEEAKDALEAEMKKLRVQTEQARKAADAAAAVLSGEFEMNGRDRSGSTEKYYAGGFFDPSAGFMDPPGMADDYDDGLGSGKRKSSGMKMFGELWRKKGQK
The experiment in a line: two-hybrid; Gal4 Gateway vectors pDEST22 (prey) and pDEST32 (bait), PJ69-4a; decimal dilutions spotted on -LT and -LTH with 1 mM 3-AT, 21°C.

Assay [2] concerns the target T2, ICR1 W338Q, two-hybrid fusion (Arabidopsis) (UniProt Q8LE98).
T2 sequence: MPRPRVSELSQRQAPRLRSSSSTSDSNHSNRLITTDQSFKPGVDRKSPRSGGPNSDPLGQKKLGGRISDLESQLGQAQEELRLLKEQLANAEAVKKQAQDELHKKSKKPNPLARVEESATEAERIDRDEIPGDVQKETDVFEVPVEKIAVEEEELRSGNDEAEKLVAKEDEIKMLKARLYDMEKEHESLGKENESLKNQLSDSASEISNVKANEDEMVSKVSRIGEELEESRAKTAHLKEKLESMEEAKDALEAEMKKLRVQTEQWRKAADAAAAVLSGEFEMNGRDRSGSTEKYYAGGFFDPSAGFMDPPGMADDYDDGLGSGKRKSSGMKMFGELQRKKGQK
The description is as above.

Assay [3] deals with T3, icr1W266Q, two-hybrid fusion (Arabidopsis) (UniProt Q8LE98).
T3 sequence: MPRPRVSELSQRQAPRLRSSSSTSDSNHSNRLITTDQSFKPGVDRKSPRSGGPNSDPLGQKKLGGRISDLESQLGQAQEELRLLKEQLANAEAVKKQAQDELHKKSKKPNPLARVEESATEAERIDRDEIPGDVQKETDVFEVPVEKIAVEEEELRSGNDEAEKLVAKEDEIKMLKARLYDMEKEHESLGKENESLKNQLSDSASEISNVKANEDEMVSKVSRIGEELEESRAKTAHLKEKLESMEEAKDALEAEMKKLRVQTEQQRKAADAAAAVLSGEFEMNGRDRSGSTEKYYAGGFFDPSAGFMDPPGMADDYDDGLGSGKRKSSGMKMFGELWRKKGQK
The assay is described as above.

Assay [4] deals with T4, icr1-301-344, the 44 C-terminal residues of ICR1, two-hybrid fusion (Arabidopsis) (UniProt Q8LE98).
T4 sequence: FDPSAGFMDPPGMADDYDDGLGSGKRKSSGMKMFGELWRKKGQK
Described as above.

The target of assay [5] is T5, full-length ICR1, Gateway (pDEST22/pDEST32) two-hybrid fusion (Arabidopsis) (UniProt Q8LE98).
T5 sequence: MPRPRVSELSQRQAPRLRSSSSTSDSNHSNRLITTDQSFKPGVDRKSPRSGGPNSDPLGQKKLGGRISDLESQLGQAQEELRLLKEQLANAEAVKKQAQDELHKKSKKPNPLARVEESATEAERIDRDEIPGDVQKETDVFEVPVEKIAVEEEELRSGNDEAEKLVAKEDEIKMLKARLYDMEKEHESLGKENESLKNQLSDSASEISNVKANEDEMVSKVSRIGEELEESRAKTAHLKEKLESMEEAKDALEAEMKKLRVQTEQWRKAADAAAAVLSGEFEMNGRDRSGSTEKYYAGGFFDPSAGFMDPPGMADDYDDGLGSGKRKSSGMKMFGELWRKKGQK
Described as above.

For assay [6], the target named is T6, ICR1W338A, two-hybrid fusion (Arabidopsis) (UniProt Q8LE98).
T6 sequence: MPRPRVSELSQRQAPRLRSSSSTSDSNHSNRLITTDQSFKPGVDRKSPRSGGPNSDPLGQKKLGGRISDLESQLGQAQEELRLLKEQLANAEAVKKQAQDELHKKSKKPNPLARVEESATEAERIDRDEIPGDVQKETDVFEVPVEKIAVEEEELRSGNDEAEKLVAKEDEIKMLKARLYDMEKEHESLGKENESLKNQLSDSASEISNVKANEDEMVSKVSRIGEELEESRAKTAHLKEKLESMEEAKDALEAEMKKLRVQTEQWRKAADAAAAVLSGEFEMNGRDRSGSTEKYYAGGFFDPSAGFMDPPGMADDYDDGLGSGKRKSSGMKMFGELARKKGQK
The assay is described as above.

Assay [7] has as its target T7, icr1-151-344, C-terminal fragment of ICR1, two-hybrid fusion (Arabidopsis) (UniProt Q8LE98).
T7 sequence: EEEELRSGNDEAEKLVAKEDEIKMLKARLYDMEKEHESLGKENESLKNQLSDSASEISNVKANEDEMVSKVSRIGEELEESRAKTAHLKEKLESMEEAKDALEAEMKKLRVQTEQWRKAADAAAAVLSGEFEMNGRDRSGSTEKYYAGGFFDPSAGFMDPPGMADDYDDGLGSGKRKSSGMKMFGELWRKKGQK
The description is as above.

Assay [8] addresses T8, ICR4, pGBT-ICR4 two-hybrid fusion (Arabidopsis) (UniProt Q9M9F9).
T8 sequence: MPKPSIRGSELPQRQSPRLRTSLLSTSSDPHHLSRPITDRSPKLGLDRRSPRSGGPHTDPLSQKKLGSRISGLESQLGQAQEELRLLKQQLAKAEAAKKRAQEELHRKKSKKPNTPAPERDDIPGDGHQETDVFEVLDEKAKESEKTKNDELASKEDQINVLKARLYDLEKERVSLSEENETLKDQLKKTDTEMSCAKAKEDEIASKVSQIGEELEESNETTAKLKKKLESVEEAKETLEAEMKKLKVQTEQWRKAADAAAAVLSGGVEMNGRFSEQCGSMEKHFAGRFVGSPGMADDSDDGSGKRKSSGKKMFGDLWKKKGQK
The experiment in a line: two-hybrid; Gal4 system, pGAD-CMI1 or pGAD-cmi1D85N cotransformed with pGBT-ICR1/ICR2/ICR4; S. cerevisiae Y190 and PJ69-4a; growth without Leu, Trp, His with 50 mM 3-AT; beta-galactosidase assays.

Assay [9] has as its target T9, ICR2, pGBT-ICR2 two-hybrid fusion (Arabidopsis) (UniProt Q9ZQC5).
T9 sequence: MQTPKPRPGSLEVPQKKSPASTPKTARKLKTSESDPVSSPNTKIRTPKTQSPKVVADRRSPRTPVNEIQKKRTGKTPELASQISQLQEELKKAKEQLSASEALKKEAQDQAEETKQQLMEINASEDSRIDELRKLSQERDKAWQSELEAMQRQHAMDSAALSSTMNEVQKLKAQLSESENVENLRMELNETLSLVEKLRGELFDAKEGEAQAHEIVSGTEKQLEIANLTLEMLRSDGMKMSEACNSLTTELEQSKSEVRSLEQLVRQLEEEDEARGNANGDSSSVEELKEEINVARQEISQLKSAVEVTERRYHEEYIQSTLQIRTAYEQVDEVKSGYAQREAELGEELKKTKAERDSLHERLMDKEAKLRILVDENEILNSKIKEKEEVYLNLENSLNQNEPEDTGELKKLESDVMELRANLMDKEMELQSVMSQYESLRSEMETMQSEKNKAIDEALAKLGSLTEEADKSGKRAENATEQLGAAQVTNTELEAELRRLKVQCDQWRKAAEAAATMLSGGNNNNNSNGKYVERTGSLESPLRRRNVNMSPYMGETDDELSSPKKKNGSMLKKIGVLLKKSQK
The description is as above.

Assay [10] has as its target T10, interactor of constitutively active ROP (ICR1), pGBT-ICR1 two-hybrid fusion (Arabidopsis) (UniProt Q8LE98).
T10 sequence: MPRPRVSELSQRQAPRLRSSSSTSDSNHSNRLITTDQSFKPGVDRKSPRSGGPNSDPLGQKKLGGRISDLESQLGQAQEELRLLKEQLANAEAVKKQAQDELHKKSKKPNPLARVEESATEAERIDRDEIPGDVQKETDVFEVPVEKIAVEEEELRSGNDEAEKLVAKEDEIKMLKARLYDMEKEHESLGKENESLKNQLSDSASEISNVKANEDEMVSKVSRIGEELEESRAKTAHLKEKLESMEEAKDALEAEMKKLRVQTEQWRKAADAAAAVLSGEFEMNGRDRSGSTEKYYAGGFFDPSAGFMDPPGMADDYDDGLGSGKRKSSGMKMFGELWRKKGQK
The description is as above.

For assay [11], the target named is T11, GST-ICR1 (Arabidopsis, UniProt Q8LE98 1-344).
T11 construct: ICR1, Arabidopsis; also called glutathione S-transferase (GST)-ICR1; source: E. coli Rosetta (DE3), purified (Glutathione sepharose)
T11 sequence (looked up): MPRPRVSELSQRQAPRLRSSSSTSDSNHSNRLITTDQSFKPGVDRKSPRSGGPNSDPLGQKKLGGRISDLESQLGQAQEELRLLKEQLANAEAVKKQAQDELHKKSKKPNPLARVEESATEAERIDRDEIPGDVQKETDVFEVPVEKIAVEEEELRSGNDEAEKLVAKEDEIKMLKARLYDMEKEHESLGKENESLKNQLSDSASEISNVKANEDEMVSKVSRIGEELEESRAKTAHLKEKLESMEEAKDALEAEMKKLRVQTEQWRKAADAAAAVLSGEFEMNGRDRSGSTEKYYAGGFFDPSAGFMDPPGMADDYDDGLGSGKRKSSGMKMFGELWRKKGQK
The experiment in a line: pull-down; as a3 but with 10 mM EGTA in place of 5 mM CaCl2 in reaction and wash buffers; both purified.

Assay [12] has as its target T12, ICR1, LexA two-hybrid fusion (Arabidopsis) (UniProt Q8LE98).
T12 sequence: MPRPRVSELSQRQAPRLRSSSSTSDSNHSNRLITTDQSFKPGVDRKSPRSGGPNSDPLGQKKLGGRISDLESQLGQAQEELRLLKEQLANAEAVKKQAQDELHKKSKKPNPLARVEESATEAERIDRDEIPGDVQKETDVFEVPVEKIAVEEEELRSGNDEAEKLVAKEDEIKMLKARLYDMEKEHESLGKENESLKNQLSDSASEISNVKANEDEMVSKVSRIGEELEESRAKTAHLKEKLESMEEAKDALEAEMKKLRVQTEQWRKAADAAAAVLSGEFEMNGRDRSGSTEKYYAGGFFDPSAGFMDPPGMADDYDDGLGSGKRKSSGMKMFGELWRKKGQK
The experiment in a line: two-hybrid; Clontech LexA system, yeast strain EGY48, X-Gal assays read after 24 and 48 hours.

These are yes or no findings as the source states them, for the method shown. Some results given as binding are weak or reduced against the parent protein; the word gives no strength. Sequences can lack the tags named with a protein.

B1: CMI1, Gateway (pDEST22/pDEST32) two-hybrid fusion (protein, UniProt O81831 1-130)
chain: MASPKSPTRPTQQNPQPNFHDFLPTMAGNLGGEGLIGELCNGFELLMDREKGVITFESLRRNAAAVLGLGDLTDEDVRCMIKEGDFDCDGALNQMEFCVLMFRLSPDLMEASRCLVTEVIEEEFGFTRRH
Turning to B1, the binding entry in assay [1] is recorded as “binds”; in [2] it was “no binding”; in assay [3] it was “binds”; in assay [4] it was “binds”; in [5], “binds”; in assay [6] it was “no binding”. In [7], the binding entry is recorded as “binds”.

B2: cmi1 L100A, Gateway two-hybrid fusion (protein, UniProt O81831 1-130)
chain: MASPKSPTRPTQQNPQPNFHDFLPTMAGNLGGEGLIGELCNGFELLMDREKGVITFESLRRNAAAVLGLGDLTDEDVRCMIKEGDFDCDGALNQMEFCVAMFRLSPDLMEASRCLVTEVIEEEFGFTRRH
As for B2, the binding result in assay [5] is “no binding”.

B3: cmi1 L59A, Gateway two-hybrid fusion (protein, UniProt O81831 1-130)
chain: MASPKSPTRPTQQNPQPNFHDFLPTMAGNLGGEGLIGELCNGFELLMDREKGVITFESARRNAAAVLGLGDLTDEDVRCMIKEGDFDCDGALNQMEFCVLMFRLSPDLMEASRCLVTEVIEEEFGFTRRH
With B3, the binding result in assay [5] is “no binding”.

B4: cmi1 L92A, Gateway two-hybrid fusion (protein, UniProt O81831 1-130)
chain: MASPKSPTRPTQQNPQPNFHDFLPTMAGNLGGEGLIGELCNGFELLMDREKGVITFESLRRNAAAVLGLGDLTDEDVRCMIKEGDFDCDGAANQMEFCVLMFRLSPDLMEASRCLVTEVIEEEFGFTRRH
On to B4, for which the binding result in assay [5] is reported as “no binding”.

B5: Ca2+-dependent modulator of ICR1 (CMI1), pGAD-CMI1 two-hybrid fusion (protein, UniProt O81831 1-130)
chain: MASPKSPTRPTQQNPQPNFHDFLPTMAGNLGGEGLIGELCNGFELLMDREKGVITFESLRRNAAAVLGLGDLTDEDVRCMIKEGDFDCDGALNQMEFCVLMFRLSPDLMEASRCLVTEVIEEEFGFTRRH
Take B5: the binding result is on record as “no binding” in assay [8], “no binding” in assay [9] and “binds” in assay [10].

B6: His6-CMI1 (natural protein, Arabidopsis, UniProt O81831 1-130, looked up)
chain: MASPKSPTRPTQQNPQPNFHDFLPTMAGNLGGEGLIGELCNGFELLMDREKGVITFESLRRNAAAVLGLGDLTDEDVRCMIKEGDFDCDGALNQMEFCVLMFRLSPDLMEASRCLVTEVIEEEFGFTRRH
notes: CMI1, Arabidopsis, At4g27280; also called His-CMI1; source: E. coli Rosetta (DE3), purified (Ni-NTA)
Regarding B6, the binding result in assay [11] is “no binding (condition: Ca2+ chelated with 10 mM EGTA)”.

B7: cmi1D85N, pGAD-cmi1D85N two-hybrid fusion (protein, UniProt O81831 1-130)
chain: MASPKSPTRPTQQNPQPNFHDFLPTMAGNLGGEGLIGELCNGFELLMDREKGVITFESLRRNAAAVLGLGDLTDEDVRCMIKEGNFDCDGALNQMEFCVLMFRLSPDLMEASRCLVTEVIEEEFGFTRRH
B7: the binding entry in assay [10] was “no binding”.

B8: CMI1, LexA two-hybrid fusions (CMI1-LexA-BD and CMI1-Lex-AD) (protein, UniProt O81831 1-130)
chain: MASPKSPTRPTQQNPQPNFHDFLPTMAGNLGGEGLIGELCNGFELLMDREKGVITFESLRRNAAAVLGLGDLTDEDVRCMIKEGDFDCDGALNQMEFCVLMFRLSPDLMEASRCLVTEVIEEEFGFTRRH
Take B8: the binding entry in [12] is listed as “binds”.
